Source: PubChem BioAssay AID504832 (National Center for Advancing Translational Sciences (NCATS), 2011)
The whole screen tested about 310,000 compounds, of which about 18,000 (5.8%) were called active. The inconclusive results got no clear call from the source; some entries with a clear call stand among them for comparison. Calls come from the whole dose curve; as a rule, active = well fitted inhibition curve with a large enough effect; inconclusive = small, poorly fitted or top-dose-only effect, or another doubt; inactive = no such curve, though single readings can be large or run the other way. No potency is given beside an inconclusive call; the fits are too rough.

experiment: Primary qHTS for delayed death inhibitors of the malarial parasite plastid, 48 hour incubation; settings: P. falciparum luciferase growth in erythrocytes; series mostly up to 28.7 µM
In short: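 In quantitative HTS format, infected erythrocytes bearing luciferase-reporter parasites were treated for a single generation at 37 C. Luminescence after adding detection reagent served as the growth measure.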
Potency is the fitted concentration of half-maximal effect; tags give direction and shape of the fitted curve.

Row | Structure (SMILES) | Potency
1 | C=CCN(CC=C)C(=O)C1CCN(Cc2ccc(OCc3ccccc3)cc2)CC1 | inconclusive [inhibitor, single point]
2 | CCN1C(=O)C(CC(=O)Nc2ccccc2Cl)N(NC(=O)c2cccc(F)c2)C1=S (centres undefined) | inconclusive [inhibitor, single point]
3 | Cc1ccc(Nc2nc(N3CCOCC3)nc(N3CCOCC3)n2)cc1C | inconclusive [inhibitor, partial curve, poor fit]
4 | CC(=O)[C@@]1(O)C(C)CC2C3C=C(C)C4=Cc5c(cnn5-c5ccccc5)C[C@]4(C)C3C(O)C[C@@]21C (some centres undefined) | active: 5.22 µM
5 | Cc1[nH]c2ccc(C(=O)OC(C)C(=O)NC3CCCCC3C)cc2c1C (centres undefined) | active: 4.65 µM
6 | CCN(CC)C(=O)Cn1cc(SCC(=O)NC2CCCC2)c2ccccc21 | inactive
7 | CC(NC(=O)COC(=O)c1ccc(N(C)C)cc1)c1ccccc1 (centres undefined) | active: 11.7 µM
8 | O=C(Nc1ccc(F)cc1)NC1(C(=O)NCc2ccc3c(c2)OCO3)CCCCC1 | inconclusive [inhibitor, partial curve]
9 | CC1=CC(C)(C)N(C(=O)CNC2CCCC2)c2cc(C)ccc21 | inconclusive [inhibitor, single point]
10 | CCn1cc(C(=O)N[C@@H](CCSC)C(=O)NCCCO)c(=O)c2cc3c(cc21)OCO3 | inconclusive [inhibitor, single point]
11 | COc1ccc(-c2nc(CSCC(=O)N3CCc4ccccc43)c(C)o2)cc1OC | inconclusive [inhibitor, partial curve]
12 | O=C(NCc1ccc2c(c1)OCO2)C1CCN(S(=O)(=O)N2CCOCC2)CC1 | inactive
13 | CC(=O)C(/C=N/c1ncc(C(F)(F)F)cc1Cl)=C(\C)O | inactive
14 | COc1ccccc1NC(=O)c1ccc2nc(-c3ccccc3)c(-c3ccccc3)nc2c1 | inconclusive [inhibitor, single point]
15 | COc1cc(/C=N\NC(=O)c2ccc(=O)[nH]n2)cc(OC)c1OC | inconclusive [inhibitor, single point]
16 | CCOc1cc(/C=N\Nc2nc(Nc3ccccc3)nc(N3CCOCC3)n2)ccc1OC(=O)c1ccco1 | inconclusive [inhibitor, single point]
17 | O=[N+]([O-])c1ccc(Sc2ccccn2)nc1 | inconclusive [inhibitor, full curve, poor fit]
18 | Cc1ccc(-c2cc(C(=O)Nc3nccs3)c3ccccc3n2)c(C)c1 | inconclusive [inhibitor, partial curve, poor fit]
19 | CC[C@@]12C(=O)N(c3cccc(Br)c3)C(=O)N1[C@H](c1cccc(C)c1)[C@@H]1C(=O)N(Cc3ccccc3)C(=O)[C@@H]12 | active: 4.15 µM
20 | CCN(CC)CCNC(=O)CCc1c(C)nc2c(c(C)nn2-c2ccc(C)cc2)c1C | inconclusive [inhibitor, full curve, poor fit]
21 | Oc1ccc(/C=N/N=C(c2ccccc2)c2ccccc2)c(O)c1O | inconclusive [inhibitor, single point]
22 | OCCC1CN(Cc2cccc(OC3CCCC3)c2)CCN1Cc1ccsc1 (centres undefined) | inconclusive [inhibitor, single point]

Row | Structure (SMILES) | Potency
23 | NC(=O)CSc1ncnc2c1nnn2Cc1ccc(F)cc1 | inconclusive [inhibitor, partial curve]
24 | O=C(NC1CCCCC1)C(c1cccs1)N(C(=O)c1ccco1)c1ccc2c(c1)OCCO2 (centres undefined) | inconclusive [inhibitor, single point]
25 | CCCN1C(=O)c2cc(C(=O)Nc3cccc(C(C)=O)c3)ccc2C1Nc1cccc(C(C)=O)c1 (centres undefined) | inconclusive [inhibitor, partial curve]
26 | O=C(c1cccc2ccccc12)N1CCCCC1 | inconclusive [inhibitor, full curve, poor fit]
27 | CC(C)NC(=O)c1onc(CSc2ccc(Cl)cc2)c1C(=O)NC(C)C | active: 5.22 µM
28 | O=C(NCC(c1ccco1)N1CCOCC1)c1ccccc1 (centres undefined) | inconclusive [inhibitor, partial curve, poor fit]
29 | Cc1ccc(CNC(=O)C(Cc2ccccc2)NS(=O)(=O)c2ccc(Br)s2)cc1 (centres undefined) | inconclusive [inhibitor, partial curve, poor fit]
30 | C[C@@H]1CCC(=O)N(C[C@@H](C)CSc2ccccc2)CC1 | inactive
31 | CC(C)C[C@H]1CN=C(Nc2ccccc2)N1CC1CCC(C)CC1 (some centres undefined) | inconclusive [inhibitor, partial curve, poor fit]
32 | C#CCOCCOCCOCCNc1nc(N2CCN(C(=O)[C@H](CCCCN)n3cc(CCCC)nn3)CC2)nc(N2CCN(C(=O)[C@H](CCCCN)n3cc(CCC(=O)O)nn3)CC2)n1 | inconclusive [inhibitor, partial curve, poor fit]
33 | Cc1ccc(C(=O)CSc2nnc(C)s2)cc1 | inactive
34 | COc1ccc(C(=O)C(CCC(CNC(C)(C)C)C(=O)c2ccc(OC)cc2)CNC(C)(C)C)cc1 (centres undefined) | active: 7.38 µM
35 | CCCCC(CC)C(=O)Oc1ccc(O)c(C(C)(C)C)c1 (centres undefined) | inconclusive [inhibitor, single point]
36 | COc1ccc(C(=O)N2CCN(S(=O)(=O)c3ccc(Br)cc3)CC2)cc1 | inconclusive [inhibitor, partial curve]
37 | COC(=O)c1ccc(/C=N/NC(=O)c2cccc(F)c2)cc1 | inconclusive [inhibitor, single point]
38 | O=C(NCC1CCN(C(=O)c2c(F)c(F)c(F)c(F)c2F)CC1)c1c(F)c(F)c(F)c(F)c1F | inactive
39 | CCN(Cc1nc2cc(Cl)ccc2c(=O)[nH]1)C(=O)c1cc(C2CC2)nn1-c1ccccc1 | inconclusive [inhibitor, single point]
40 | O=C(CSc1nc2ccccc2n1-c1ccccc1)NCC1CCCO1 (centres undefined) | inconclusive [inhibitor, partial curve]
41 | CC(Sc1nc(-c2ccccc2)cc(C(F)(F)F)n1)C(=O)Nc1sc2c(c1C(N)=O)CCC2 (centres undefined) | inconclusive [inhibitor, single point]
42 | Cc1ccc(C2OC(=O)C=C2c2ccccc2)cc1 (centres undefined) | inconclusive [inhibitor, partial curve, poor fit]
43 | CCc1cccc(NC(=O)CSc2nc3c(c(=O)[nH]2)CCCC3)c1 | inactive
44 | C=CCOC(=O)C1=C(C)NC(=O)NC1c1ccc(OCC)cc1 (centres undefined) | inconclusive [inhibitor, full curve, poor fit]

Row | Structure (SMILES) | Potency
45 | COc1ccc(CCNC(=O)CCCc2ccccc2)cc1 | inactive
46 | Cc1ccc(S(=O)(=O)n2ccc(-c3cccc(OCc4c(F)cccc4Cl)c3)n2)cc1 | active: 3.7 µM
47 | CN(CC(=O)Nc1cccc(F)c1)C(=O)c1cccc(-n2cccc2)c1 | inconclusive [inhibitor, partial curve]
48 | O=C(Oc1ccc2ccc(=O)oc2c1)c1ccco1 | inactive
49 | O=c1c2ccccc2nc(N/N=C/c2c(O)ccc3ccccc23)n1O | active: 0.522 µM
50 | Cc1cc(F)ccc1S(=O)(=O)NCC1CC2CCC1C2 (centres undefined) | inconclusive [inhibitor, single point]
51 | C=Cn1ccnc1P(=S)(c1ccc(N(C)C)cc1)c1nccn1C=C | inactive
52 | c1cncc(N=c2scc(-c3cccc4ccccc34)n2CCCn2ccnc2)c1 | active: 9.28 µM
53 | Cc1cc(C)nc(N2CCCC(C(=O)Nc3ccc4nc(C)c(C)nc4c3)C2)n1 (centres undefined) | active: 11.7 µM
54 | Cc1ccc(C)c(-c2nn(-c3cc(N4CCN(CCO)CC4)ccc3[N+](=O)[O-])c(=O)c3ccccc23)c1 | inconclusive [inhibitor, partial curve, poor fit]
55 | CCOC(=O)C1=C(C)N(C)C(C)=C(C(=O)OCC)C1c1ccccn1 | inconclusive [inhibitor, partial curve, poor fit]
56 | O=C(CC(=O)NC1CCCCC1)N/N=C/c1cccc2ccccc12 | inconclusive [inhibitor, single point]
57 | COC(=O)c1ccc(C2NC(=S)N(c3ccccc3)C(C)=C2C(=O)Nc2ccccc2OC)cc1 (centres undefined) | active: 13.1 µM
58 | COc1ccccc1Oc1ccc(S(=O)(=O)N2CCCCC2)cc1NC(=O)CCNC(C)=O | active: 11.7 µM
59 | Cc1ccc(S(=O)(=O)N(C)C)cc1-n1c(SCC(=O)Nc2ccccc2)nc2ccccc2c1=O | inconclusive [inhibitor, partial curve]
60 | O=C(CSc1ncnc2nc[nH]c12)c1ccc([N+](=O)[O-])cc1 | inconclusive [inhibitor, partial curve, poor fit]
61 | COc1ccc(CC(=O)Nc2ccc(S(=O)(=O)N3CCOCC3)cc2)cc1 | inconclusive [inhibitor, single point]
62 | Cc1ccc(-c2nn(C(C)(C)C)c3ncnc(NS(=O)(=O)c4ccc([N+](=O)[O-])cc4)c23)cc1 | inconclusive [inhibitor, partial curve, poor fit]
63 | CC(=O)c1ccc(N(C(=O)Cn2nnc3ccccc32)C(C(=O)NCc2ccccc2)c2ccccn2)cc1 (centres undefined) | inactive
64 | CCc1ccc(/C=C2\SC(=S)N(CCCC(=O)Nc3ccc(C(=O)O)cc3)C2=O)cc1 | inconclusive [inhibitor, single point]
